Here are results for 34 variants from the RNAGym collection of RNA variant scans (doi:10.1093/nar/gkz1192).

B1: CPEB3 Ribozyme (parent)
chain: UAACAGGGGGCCACAGCAGAAGCGUUCACGUCGCAGCCCCUGUCAGAUUCUGGUGAAUCUGCGAAUUCUGCUGUAUAUCUC

The source gives no read counts; variants with many changes may rest on few reads.

The variants in the data set derive from B1. Put plainly: self-cleavage, relative activity (ratio to wild type); higher = more cleavage; in vitro, sequencing. In a few lines: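 After error-prone PCR and barcoding, CPEB3 ribozyme mutant libraries were transcribed with T7 RNA polymerase at 37°C for 5 hours, then given 15 min with DNase I before an EDTA stop, and they cleaved during both steps. Reverse transcription with template switching preceded Illumina sequencing. Relative activity divides a variant's cleaved/total read fraction by the unmutated ribozyme's. At least 5 reads were required per variant, and three batches were averaged.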
Consider CAACAGGGGGCCACAGCAGAAGCGUUCACGUCGCAGCCCCUGUCGGAUUCCGGUGAAUCUGCGAAUUCUGCCGUAUAUCUC, for which the self-cleavage stood at 0.48.
Regarding CAACAGGGGGCCACAGCAGAAGCGUUCACGUCGCGGCCCCCGACAGAUUCUGGUGAAUCUGCGAAUUCAGCUGUAUAUCUC, the self-cleavage stood at 0.78.
As for CAACAGGGGGCCACAGCAGAAGCGUUCACGUCGCAGCCCCUGUCAGUUUCUGGUGAGUCUGCGGAUUCUGCUGUAUAUCUC, the self-cleavage was 0.21.
Next, CAACAGGGGGCCACAGCAGAAGCGUUCACGUCGCAGCCCCUGUCGGAUUCCGGUGAAUCUGCGAAUUUUGCUGUAUAUCUC: 0.32; CAACAGGGGGCCACAGCAGAAGCGUUCACGUCGCAGCCCCUGUCGGAUUCUGGCGAAUCUGCGAAUUCUGCUGUAUAUCUC: 0.54.
Next, CAAAAGGGGGCCACAGCAGAAGCGUUCACGUCGCAGCCCCUGUCAGAUUCUGGUGAAUCUGCGAAUUCAGCUGUAUAUCUC: 0.95; CAACAGGGGGCCACAGCAGAAGCGUUCACGUCGCGGCCCCUGUCAGAUUCAGGUGAAUCUGCGAAUUCAGCUGUAUAUCUC: 1.23.
Take CAACAGGGGGCCACAGCAGAAGCGUUCACGUCGCAGCCCCUGUCAGAUUCUGGUGCAUCUGCGAAUUCUGCUAUAUAUCUC: the self-cleavage was determined as 1.02.
Regarding CAACAGGGGGCCACAGCAGAAGCGUUCACGUCGCUGCCCCUGUCAGAUCCUAGCGUAUCAGCGAAUUCUGCUGUAUAUCUC, the self-cleavage was 0.15.
CAACAGGGGGCCACAGCAGAAGCGUUCACGUCGCUGACCCUGUCAGAUUCUGGCGUAUCUGCGAAUUCUGCUGUAUAACUC: the self-cleavage was determined as 0.14.
Next, CAACAGGGGGCCACAGCAGAAGCGUUCACGUCGCAGCCCCUGUCAGAUUCUGGUGGAUCUGCGAAUUUUGCUGUAUAUCUC: 0.4; CAACAGGGGGCCACAGCAGAAGCGUUCACGUCGCAGCCCCUGUCGGAUUCUGGUGAAUCUGCGAACUCUGCUGUAUAUCUC: 0.29.
As to CAACAGGGGGCCACAGCAGAAGCGUUCACGUCGCAGCCCCUGUCAGAUUCUGGUGAAUCUGCGAGUUCUGCAGUAUAUCUC, the self-cleavage was determined as 0.25.
For CAACAGGGGGCCACAGCAGAAGCGUUCACGUCGCAGCCCCUGUCUGAUUCUGGUGAAUCUGCGAAUUCUGCUGUAUGUCUC the value was 0.51; for CAACAGGGGGCCACAGCAGAAGCGUUCUCGUCGCAGCCCCUGACAGAUUCUGGUGAAUCUGCGAAUUCUGCUGUAUAUCUC, 1.03.
For CAACAGGGGGCCACAGCAGAAGCGUUCACGUCGCAGCCCCUGUCUGGUUCUGGUGAAUCUGCGAAUUCCGCUGUAUAUCUC, the self-cleavage worked out at 0.42.
For CAACAGGGGGCCACAGCAGAAGCGUUCACGUCGCAGCCCCUGUCAGAUUCUGGUGUAUCUGCGAAUUACGCUGUAUAUCUC the value was 0.18; for CAACAGGGGGCCACAGCAGAAGCGUUCACGUCGCCGCCCCUGUCAGACUCUGGUGAAUCUGCGAAUUCUGCUGUAUAUCUC, 0.26.
Next, CAACAGGGGGCCACAGCAGAAGCGUUCACGUCGCAGCCCCUGUCAGAUUCUGGUGAAUCUGCGUAUUCCGCUGUAUAUCUC: 0.21.
For CAACAGGGGGCCACAGCAGAAGCGUUCACGUCGCAGCCCCUGUCAGGCUCUGGUGAAUCUGCGAAUUCUGCUGUAUAUCUC the value was 0.28; for CAACAGGGGGCCACAGCAGAAGCGUUCACGUCGCAGCCCCUGUCAGAUUCUGGUGAAUCUGCGAGUCCUGCUGUAUAUCUC, 0.47.
Regarding CAACAGGGGGCCACAGCAGAAGCGUUCACGUCGCAGCCCCUGUCAGAUUCUGGUGGAUCUGCGAAUUCAGCUGUAUAUCUC, the self-cleavage was found to be 0.48.
For CAACAGGGGGCCACAGCAGAAGCGUUCACGUCGCGGCCCCAGUCAGAUUCAGGUGAAUCUGCGAAUUCUGCUGUAUAUCUC the value was 0.46; for CAACAGGGGGCCACAGCAGAAGCGUUCACGUCGCAGCCCCUGUCGGAUUCUGGUGAAUCUGCGAAUUCGGCUGUAUAUCUC, 0.21; for CAACAGGGGGCCACAGCAGAAGCGUUCACGUCGCAGCCCCUGUCGGAUUCUGGUGAAUCUGCGAAUUCCGCUGUAUAUCUC, 0.19.
Next, CAACAGGGGGCCACAGCAGAAGCGUUCACGUCGCAGCCCCUGUCGGAUUCUGGUGAAUCUGCGUAUUCUGCUGUAUAUCUC: 0.11; CAACAGGGGGCCACAGCAGAAGCGUUCACGUCGCGGCCCCCGUCAGAUUCUGGUGAACCUGCGAAUUCUGCUGUAUAUCUC: 0.72; CAACAGGGGGCCACAGCAGAAGCGUUCACGUCGCAGCCCCUGUCAGAUUCUGGUGUACCUGCGGAUUCUGCUGUAUAUCUC: 0.16.
CAACAGGGGGCCACAGCAGAAGCGUUCACGUCGCAGCCCCUGUCAGAUUCUGGUGGAUCUGCGAAUUCUGCAGCAUAUCUC: the self-cleavage came out at 1.07.
Next, CAACAGGGGGCCACAGCAGAAGCGUUCUCGUCGCAGCCCCUGUCAGAUUCUGGUGAAUCUGCGAAUUCUGCAGUAUAUCUC: 0.33; CAACAGGGGGCCACAGCAGAAGCGUUCACGUCGCGGCCCCUGCCUGGUUCUGGUGAAUCUGCGAAUUCUGCUGUAUAACCC: 0.55.
Next, CAACAGGGGGCCACAGCAGAAGCGUUCUCGUCGCAGCCCCUGUCAGAUACUGGUGGAUCUGCGAAUUCUGCUGUAUAUCUC: 0.26.
Next, CAACAGGGGGCCACAGCAGAAGCGUUCACGUCGCAGCCCCUGUCUGAUUCUGGUGAAUCUGCGAAUUCCGCUGUAUAUCUC: 0.1.
As to CAACAGGGGGCCACAGCAGAAGCGUUCACGUCGCUGCCCCUGUCAGAUCCUAGCGAAUCAGCGAAUUCUGCUGUAUAUCUC, the self-cleavage stood at 0.16.
